Over roughly 33,000 sequences, “E-score (-0.5 to 0.5)” has its median near -0.016; the highest 2% begin near 0.31. Some of the results follow.
Molecular target: Cst6 (UniProt P40535)
Assay: PBM E-score (8-mer binding enrichment) (E-score (-0.5 to 0.5)); higher = stronger / more preferred TF binding; most listed sequences are background and not binding sites
Details: protein concentration: 200 nM; construct: GST-DNA-binding domain
Procedure: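 Universal 'all 10-mer' protein binding microarrays (Agilent AMADID 015681) probed with GST-tagged S. cerevisiae TFs (full-length or DBD) made by in vitro transcription/translation (PURExpress), about 100-200 nM. Bound TF was detected with fluorescent anti-GST. Each ungapped 8-mer (which stands for itself and its reverse complement) is scored by the PBM enrichment score (E-score), a modified Wilcoxon-Mann-Whitney statistic from -0.5 to +0.5, computed with the Universal PBM Analysis Suite. Scale: above 0.35 generally sequence-specific binding.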

| Sequence | PBM E-score |
| --- | --- |
| AAACAACC | 0.0437 |
| GTTAGAAA | 0.0476 |
| CCGCCAAC | -0.256 |
| GTGAGAAA | 0.133 |
| CCACGGGG | -0.283 |
| AGAGAGGA | -0.32 |
| ATTTCTGC | 0.22 |
| CTTAAGCA | -0.227 |
| GCCGTACA | 0.237 |
| CCCGCATA | 0.162 |
| ACGCCTAG | -0.0363 |
| AAACGGTT | -0.0412 |
| CGGGTCAC | -0.131 |
| CGTATCAG | 0.0591 |
| AGAATCGA | -0.0254 |
| CACGAGAC | -0.0226 |
| CCGAACTA | 0.00284 |
| ATTCAGAG | 0.156 |
| GTCGGTCA | -0.202 |
| AGACTGAA | 0.0537 |
| ACCTCCAT | -0.185 |
| CCCGTTCG | -0.0146 |
| AACTTGGT | 0.0656 |
| AAAGTCCG | -0.225 |

| Sequence | PBM E-score |
| --- | --- |
| TAGATTCA | -0.123 |
| CCCGGACA | -0.124 |
| ATCCAGCC | -0.321 |
| CTTATGTA | 0.186 |
| TAACGTAA | 0.452 |
| ACACGCGA | 0.0369 |
| CGGACAGA | 0.0405 |
| GTGCGTCA | 0.432 |
| CAACTAGC | -0.0318 |
| CTTTTAAC | 0.0717 |
| GTGCCGTA | 0.389 |
| GGTACGCA | -0.0788 |
| AGCGTCTG | -0.194 |
| ACCCTTAG | -0.112 |
| TATTCAGA | 0.237 |
| ATCGTTCC | -0.0931 |
| AAACGTAA | 0.365 |
| ATATCACA | 0.169 |
| AGATGGTA | -0.0215 |
| CACGGGTA | 0.00477 |
| CAAGGGAC | -0.24 |
| CTGCTAAA | -0.0752 |
| GCGGGACA | -0.106 |
| AGTTACAT | 0.0765 |

| Sequence | PBM E-score |
| --- | --- |
| CGTGGCGC | 0.096 |
| AAAGTCAC | 0.098 |
| CCACATAG | -0.244 |
| TCACTACA | 0.24 |
| CCCCCTAA | -0.28 |
| AAAAAGCA | 0.124 |
| GAGTTCAC | -0.0863 |
| TACCAATA | -0.0757 |
| AAAGGATG | -0.0221 |
| ACCGTGCT | -0.149 |
| GGACCGCC | -0.288 |
| CGCTCGAC | -0.204 |
| TCGGATCA | 0.13 |
| CTCCTGAC | -0.0342 |
| CAGGTATG | 0.121 |
| AGTATTGG | -0.078 |
| CAGTAAGG | 0.0136 |
| CTTAGCGC | 0.11 |
| AAACGAAT | 0.15 |
| AGAACGAC | -0.0889 |
| AGTCATAG | 0.0637 |
| TAAGAGAA | 0.246 |
| TGAACACA | 0.06 |
| GATGGCTA | -0.0452 |

| Sequence | PBM E-score |
| --- | --- |
| CGAACAAC | 0.193 |
| ATAATACA | 0.284 |
| CGTCAGCC | 0.267 |
| GATGAACC | -0.123 |
| ATAGTCCG | -0.0347 |
| GATGGGCC | -0.218 |
| CAGCCAAG | -0.24 |
| AACTGGGG | -0.264 |
| ATGTAACG | 0.235 |
| AAAGACAC | 0.171 |
| ATACTACC | -0.0771 |
| CCCTTTCG | -0.215 |
| AACTTCAC | 0.0265 |
| AGGCTAGC | -0.263 |
| AGTTCTAG | -0.241 |
| GTTAGAGA | -0.116 |
| AATTCCCA | 0.0197 |
| CTCTACTC | -0.115 |
| AAACTAGA | -0.0317 |
| AGAACTTA | 0.0848 |
| ACCTAGGG | -0.159 |
| CTTTCGAA | -0.0432 |

Reference: the supplement of paper PMC3334620
